# Laboratory results published in PMC5225419, “Further evidence for microtubule-independent dimerization of TPPP/p25” (Scientific Reports, 2017).
# Tests used:
# [1] = target: T1, full length (FL) human recombinant TPPP/p25 (Tubulin Polymerization Promoting Protein) (human, UniProt O94811); assay: ELISA; sandwich ELISA: 1 uM FL or CORE TPPP/p25 reduced with 100 uM DTE (30 min, room temperature) and captured on the mAb-coated plate; excess DTE removed; the different TPPP/p25 forms added; dimers detected with biotinylated mAb; PBS; no tubulin/MT; conditions: both partners purified
# T1 construct: Tubulin Polymerization Promoting Protein (TPPP/p25), human, full length; A part of the 200 uM stock is a dimer stabilised by intermolecular disulphide bridges; also called FL TPPP/p25; source: E. coli BL21 (DE3), purified (HIS-Select Cartridge)
# T1 sequence (O94811 whole entry): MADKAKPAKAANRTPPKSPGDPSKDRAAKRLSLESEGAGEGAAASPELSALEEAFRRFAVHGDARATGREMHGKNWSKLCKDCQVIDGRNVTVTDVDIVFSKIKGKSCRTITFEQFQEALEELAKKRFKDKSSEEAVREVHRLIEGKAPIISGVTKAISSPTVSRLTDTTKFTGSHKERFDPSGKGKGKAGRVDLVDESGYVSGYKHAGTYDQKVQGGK
# [2] = target: the molecule itself; assay: SDS-PAGE without reducing agent; 5 ug protein from the 200 uM stock solution loaded directly onto the gel in the absence of DTE; disulphide-stabilized dimers
binder,measurement,setting,value
"double truncated (CORE) TPPP/p25 (TPPP/p25 delta […]/delta […]) (domain or fragment, TPPP/p25, human, CORE segment, printed as delta […]/delta […] (CORE […]): residues 1-2 joined to […]; also called terminal-free TPPP/p25; CORE segment […]; source: E. coli BL21 (DE3), purified (HIS-Select Cartridge)) not shown",binding result,[1],binds
same,stoichiometry N,[2],2
